Data: the supplement of paper PMC8183993
Counter-ions that a name gives are not always drawn. ± gives the standard deviation of the averaged measurements. The full ranking holds about 3,100 compounds; the median of “mean cytoplasmic OPP incorporation (global translation) relative to DMSO” is about 100, and the lowest 2% start at about 56. Some of the results follow.

The molecules below were run on U2OS (assay: mean cytoplasmic OPP incorporation (global translation) relative to DMSO (% of DMSO); higher = more protein synthesis). Conditions: 10 µM; 24 h.
Description: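 Primary image-based screen in U2OS cells: compounds at 10 uM for 24 h, then a 1 h o-propargyl-puromycin (OPP) pulse, click labelling, and high-throughput microscopy. Mean cytoplasmic OPP intensity and nuclei count were normalised to DMSO wells within each plate (DMSO = 100) and averaged over triplicate plates.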

Row | Compound | mean cytoplasmic OPP incorporation
1 | COc1cc(CCc2cc(NC(=O)c3ccc(N4CC(C)NC(C)C4)cc3)n[nH]2)cc(OC)c1 (centres undefined) | 95 ± 1
2 | C[C@@H]1CC[C@@]2(OC1)O[C@H]1C[C@H]3[C@@H]4CC=C5C[C@@H](O)CC[C@]5(C)[C@H]4CC[C@]3(C)[C@H]1[C@@H]2C [Diosgenin] | 105
3 | O=C(NCCCCCCNC(=O)ON=C1CCCCC1)ON=C1CCCCC1 | 102
4 | CC(C)[C@H](O)C(=O)N[C@@H](C)C(=O)N[C@@H]1C(=O)N(C)CCc2ccccc21 | 100
5 | C=CCN1CCc2cc(O)c(O)cc2C(c2ccccc2)C1 (centres undefined) | 100
6 | OCCN1CCN(CC/C=C2/c3ccccc3Sc3ccc(Cl)cc32)CC1 [Zuclopenthixol dihydrochloride] | 117
7 | Cc1[nH]nc2ccc(-c3cncc(OC[C@@H](N)Cc4ccccc4)c3)cc12 | 61.6
8 | CCC(=O)O[C@]1(C(=O)SCF)[C@H](C)C[C@H]2[C@@H]3C[C@H](F)C4=CC(=O)C=C[C@]4(C)[C@@]3(F)[C@@H](O)C[C@@]21C [Fluticasone propionate (Flonase, Veramyst)] | 101
9 | CCC(=O)O[C@]1(C(=O)SCF)[C@H](C)C[C@H]2[C@@H]3C[C@H](F)C4=CC(=O)C=C[C@]4(C)[C@@]3(F)[C@@H](O)C[C@@]21C [Fluticasone propionate] | 108 ± 7.6
10 | NS(=O)(=O)c1nn2cc(-c3ccccc3)nc2s1 | 99.3
11 | Nc1ccc(/N=N/c2ccccc2)c(N)n1 [Phenazopyridine hydrochloride] | 101
12 | CN(C)CCOC(=O)C(c1ccccc1)C1(O)CCCC1 (centres undefined) [Cyclopentolate hydrochloride] | 99.2
13 | CCc1cc(Cl)c(OC)c(C(=O)NC[C@@H]2CCCN2CC)c1O [Eticlopride hydrochloride] | 102
14 | O=[N+]([O-])c1cn2c(n1)OC[C@@H](OCc1ccc(OC(F)(F)F)cc1)C2 | 96.3
15 | Cn1nnc2c(C(N)=O)ncn2c1=O [Temozolomide] | 104 ± 4.3
16 | Cn1nnc2c(C(N)=O)ncn2c1=O [Methazolastone] | 101
17 | CN1[C@@H]2CC[C@H]1C[C@@H](OC(=O)C(O)c1ccccc1)C2 (mixture of isomers) [Homatropine hydrobromide (R,S)] | 98.6
18 | C[C@]12CC[C@H](O)CC1=CC[C@@H]1[C@@H]2CC[C@]2(C)C(c3cccnc3)=CC[C@@H]12 [Abiraterone (CB-7598)] | 99.2
19 | COc1ccc(CCC(=O)c2c(O)cc(O[C@@H]3O[C@H](CO)[C@@H](O)[C@H](O)[C@H]3O[C@@H]3O[C@@H](C)[C@H](O)[C@@H](O)[C@H]3O)cc2O)cc1O [Neohesperidin dihydrochalcone (Nhdc)] | 99.1
20 | CC(C)(C)CC(C)(C)c1ccc(OCCOCC[N+](C)(C)Cc2ccccc2)cc1 [Benzethonium chloride] | 103
21 | CCCCOc1ccc(C(=O)CCN2CCCCC2)cc1 [Dyclonine hydrochloride] | 99.4
22 | COc1ccc(CCC(=O)Nc2nc3ccc(Cl)cc3s2)cc1OC | 99.8
23 | COc1ccc(-c2cc3nccn3c(Nc3ncccc3C(N)=O)n2)cc1OC | 93.9
24 | C=C1C(=O)O[C@H]2[C@H]1CC/C(C)=C/CC[C@@]1(C)O[C@@H]21 [Parthenolide] | 87.6 ± 14
25 | Nc1nc(N)c2nc(-c3ccccc3)c(N)nc2n1 [Triamterene] | 94.4

Row | Compound | mean cytoplasmic OPP incorporation
26 | C=C1CC[C@H](O)C/C1=C/C=C1\CCC[C@]2(C)[C@@H]([C@H](C)/C=C/[C@H](C)C(C)C)CC[C@@H]12 [Vitamin D2 (Ergocalciferol)] | 99.5
27 | C=CC[N+]1([C@H]2C[C@H]3[C@@H]4CC[C@H]5C[C@H](O)[C@@H](N6CCOCC6)C[C@]5(C)[C@H]4CC[C@]3(C)[C@H]2OC(C)=O)CCCC1 [Rocuronium bromide] | 101
28 | CC(C)(C)NC(=O)[C@H]1CC[C@H]2[C@@H]3CC[C@H]4NC(=O)C=C[C@]4(C)[C@H]3CC[C@]12C [Finasteride] | 102 ± 4.5
29 | Cc1ccc(C(=O)N(CCCN)[C@@H](c2oc3cc(Cl)ccc3c(=O)c2Cc2ccccc2)C(C)C)cc1 | 327
30 | C[N+](C)(C)C[C@H](O)CC(=O)[O-] [L-carnitine (Levocarnitine)] | 104
31 | O=C(O)c1cc(O)ccc1O [Gentisic acid] | 101
32 | CC(C)C(=O)c1c(C(C)C)nn2ccccc12 [Ibudilast] | 90.3 ± 1.4
33 | C[N+](C)(C)CC(O)CC(=O)[O-] (racemic) [DL-Carnitine HCl] | 97.4
34 | CC(CN(C)C)CN1c2ccccc2CCc2ccccc21 (centres undefined) [Trimipramine maleate salt] | 106
35 | COP(=O)(OC)OC(c1ccc(Cl)cc1)P(=O)(OC)OC (centres undefined) | 91.5
36 | Cn1c(N2CCCCS2(=O)=O)nc(C(=O)NCc2ccc(F)cc2)c(O)c1=O | 106
37 | COC(=O)[C@H]1[C@H]2C[C@H]3c4[nH]c5ccccc5c4CCN3C[C@H]2CC[C@@H]1O [Rauwolscine hydrochloride] | 100
38 | CC(C)NCC(O)COc1cccc2[nH]ccc12 (centres undefined) [Pindolol] | 99.2 ± 3.2
39 | OC(CCN1CCCC1)(c1ccccc1)C1CCCCC1 (centres undefined) [Procyclidine hydrochloride] | 106
40 | C[C@H](CS)C(=O)N1CCC[C@H]1C(=O)O [Captopril] | 97.6 ± 2.7
41 | CN(Cc1cc(Br)cc(Br)c1N)C1CCCCC1 [Bromhexine hydrochloride] | 108
42 | Cn1cnc2c(F)c(Nc3ccc(Br)cc3Cl)c(C(=O)NOCCO)cc21 [AZD6244 (Selumetinib)] | 88.1
43 | Nc1nc(N)c2nc(-c3cccc(O)c3)c(-c3cccc(O)c3)nc2n1 | 104
44 | CC1(C)O[C@@H]2C[C@H]3[C@@H]4C[C@H](F)C5=CC(=O)C=C[C@]5(C)[C@H]4[C@@H](O)C[C@]3(C)[C@]2(C(=O)CO)O1 [Flunisolide] | 110
45 | O=C(/C=C/c1cccnc1)NCCCCC1CCN(C(=O)c2ccccc2)CC1 | 105
46 | NCCc1ccc(O)c(O)c1 [Dopamine hydrochloride] | 104
47 | N#CC1(c2ccc(NC(=O)c3cccnc3NCc3ccncc3)cc2)CCCC1 [Apatinib (YN968D1)] | 114
48 | CCCNC(=O)N1N=C(c2ccc(N)cc2)c2cc3c(cc2C1C)OCO3 (centres undefined) | 107
49 | Cc1c(Nc2ncccc2C(=O)O)cccc1C(F)(F)F [Flunixin meglumine] | 106
50 | CC[C@H](c1ccc(O)cc1)[C@@H](CC)c1ccc(O)cc1 [Hexestrol (Bibenzyl)] | 104

Row | Compound | mean cytoplasmic OPP incorporation
51 | CC[C@H](c1ccc(O)cc1)[C@@H](CC)c1ccc(O)cc1 [Hexestrol] | 106
52 | Cc1ccc2c(c1)c1c(n2CCc2ccc(C)nc2)CCN(C)C1 [Dimebon (Latrepirdine)] | 108
53 | COc1ccc(CNc2nc(N3CCC[C@H]3CO)ncc2C(=O)NCc2ncccn2)cc1Cl [Avanafil] | 110
54 | O=C1NC(c2cccc([N+](=O)[O-])c2)=CCN1c1ccccc1O [Icilin] | 99
55 | CC(=O)OCC(=O)[C@@]1(O)CC[C@H]2[C@@H]3CCC4=CC(=O)C=C[C@]4(C)[C@H]3[C@@H](O)C[C@@]21C [Prednisolone acetate (Omnipred)] | 103
56 | CCCN(CC1CC1)c1nc(C)nc(Nc2c(Cl)cc(Cl)cc2Cl)c1Cl | 105
57 | CN1CCN(C(=O)c2cc3cc(Cl)ccc3[nH]2)CC1 | 103
58 | O=C(Nc1ncc(SCCN2CCCC2)s1)[C@]1(c2ccc(S(=O)(=O)C3CC3)cc2)C[C@H]1C1CCCCC1 | 128
59 | O=C(O)CCCN1CCC(O[C@@H](c2ccc(Cl)cc2)c2ccccn2)CC1 [Bepotastine Besilate] | 110
60 | C[C@H]1C[C@H]2[C@@H]3CCC4=CC(=O)C=C[C@]4(C)[C@H]3C(=O)C[C@]2(C)[C@@]1(O)C(=O)CO [Betapar (Meprednisone)] | 119
61 | CC1(C)O[C@@H]2C[C@H]3[C@@H]4C[C@H](F)C5=CC(=O)CC[C@]5(C)[C@H]4[C@@H](O)C[C@]3(C)[C@]2(C(=O)CO)O1 [Flurandrenolide] | 97.9
62 | CCC(=O)OCC(=O)[C@@]1(OC(=O)CC)[C@@H](C)C[C@H]2[C@@H]3CCC4=CC(=O)C=C[C@]4(C)[C@@]3(F)[C@@H](O)C[C@@]21C [Betamethasone Dipropionate (Diprolene)] | 118
63 | Cc1ccc(S(=O)(=O)OCC(=O)Nc2ccc(C(=O)O)c(O)c2)cc1 | 101
64 | COc1ccc(Br)cc1S(=O)(=O)NC(=O)/C=C/c1ccccc1Cc1ccc2ccccc2c1 | 102
65 | CN1CCN(C(=O)c2nc3ccc(Cl)cc3[nH]2)CC1 | 81.1
66 | Nc1ncn(C2CC(O)C(CO)O2)c(=O)n1 (centres undefined) [5-Aza-2-deoxycytidine] | 94.5
67 | NNC(=O)c1ccncc1 [Isoniazid] | 76
68 | CN(C(=O)CCCOc1ccc2[nH]c(=O)ccc2c1)C1CCCCC1 [Cilostamide] | 92.3
69 | O=C(Cc1ccccc1)Nc1cccc(C(=O)Nc2ccccc2C(=O)O)c1 | 106
70 | CCN1CCCC1CNC(=O)c1cc(S(N)(=O)=O)ccc1OC (centres undefined) [Sulpiride] | 98.5
71 | COc1ccc(-c2ccc3cc(C(=O)O)ccc3c2)cc1C12CC3CC(CC(C3)C1)C2 [Adapalene] | 99.9
72 | O=c1[nH]c(=O)n([C@H]2C[C@H](O)[C@@H](CO)O2)cc1I [Idoxuridine] | 99
73 | CN1CCN(c2ccc3nc(-c4c(N)c5c(F)cccc5[nH]c4=O)[nH]c3c2)CC1 [Dovitinib (TKI-258)] | 89.2 ± 17
74 | C=CCNC1=C2C[C@@H](C)C[C@H](OC)[C@H](O)[C@@H](C)/C=C(\C)[C@H](OC(N)=O)[C@@H](OC)/C=C\C=C(/C)C(=O)NC(=CC1=O)C2=O | 108
